Variants at the background level are over-represented here.

Among the data in the RNAGym collection of RNA variant scans (doi:10.1101/gad.245936.114) are nonsense suppression values, retold here.

The labels stand for the following.
B1: tRNA (parent)
chain: CUCUCGGUAGCCAAGUUGGUUUAAGGCGCAAGACUUUAAUUUAUCACUACGAAAUCUUGAGAUCGGGCGUUCGACUCGCCCCCGGGAGAUUUUUUCCUCGAGCAA

This data set covers variants of B1. The data set can be described thus: nonsense suppression (GFP-seq) (ratio to wild type); higher = more function; SUP4oc tRNA, yeast GFP reporter sort-seq. Put shortly:
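Raffinose/galactose medium with 80 mg/L adenine was used to grow yeast carrying genome-integrated tRNA variants (~3% random-mutation library), RFP, and a galactose-driven GFP ochre reporter. Cells went into GFP/RFP bins, which were Illumina-sequenced, and variants with ≥100 reads and ≥30 cells were scored. Nonsense suppression (GFPSEQ) is the per-bin median GFP/RFP weighted by estimated cell share and expressed relative to the unmutated parent tRNA.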
In the case of C1G C27A A30U G85A, the nonsense suppression is ≤ 0.026.
In the case of A13G U58A G59U it was ≤ 0.026; in that of A23G A31C C34G, ≤ 0.026; in that of A14U U16C A33C G84A, ≤ 0.026.
As to G66C G86U, the nonsense suppression is ≤ 0.026.
For U63A G66C C75G C79U, the nonsense suppression was ≤ 0.026.
Take U20A U35G U57A: the nonsense suppression was ≤ 0.026.
In the case of U2G C3U A74U it was ≤ 0.026; in that of C81A G86A, ≤ 0.026; in that of A23G U35G U55C G61A, ≤ 0.026.
In the case of U2G U57G G88A it was ≤ 0.026.
To U35G C75A belongs ≤ 0.026.
Regarding G7U G15U G59A, the nonsense suppression is ≤ 0.026.
To A24C C34G A54C A60C belongs ≤ 0.026; to G66U C72G, ≤ 0.026.
On to A30C G78C, for which the nonsense suppression was ≤ 0.026.
In the case of C1U A33G U55A it was ≤ 0.026; in that of C3U G28A A31U, ≤ 0.026.
To G7U G19A belongs ≤ 0.026.
In the case of U63C C68U it was 0.228; in that of C5U C11G C12G G15U U71A, ≤ 0.026.
Regarding C29U A33U U58A C75A, the nonsense suppression is ≤ 0.026.
In the case of C5G A24G G25C C81A, the nonsense suppression was ≤ 0.026.
To U22C G69C belongs ≤ 0.026; to C11U C64A, ≤ 0.026; to U4G C11U C75U, ≤ 0.026.
To G69U A74G belongs ≤ 0.026; to G7U A54G G61A, ≤ 0.026.
On to U2C A60U, for which the nonsense suppression was found to be 0.194.
To U22C G26U belongs ≤ 0.026.
In the case of A31C C34U G59A it was ≤ 0.026.
Regarding C5G C11G G61C G67C G78C, the nonsense suppression was ≤ 0.026.
In the case of C1U A9C G25C C34U it was ≤ 0.026.
In the case of A31C G84C, the nonsense suppression was ≤ 0.026.
In the case of G10C A13U G67U G78U it was ≤ 0.026.
Turning to G25A U63G A74G C81G, the nonsense suppression was ≤ 0.026.
To G15A U16C A23U G61A belongs ≤ 0.026; to A9G C34G U57C U58C C81U G88U, ≤ 0.026.
To G15U G65C G66C belongs ≤ 0.026.
To G18A G67U U70C belongs ≤ 0.026.
Regarding C3A U4A U16A C68G G88U, the nonsense suppression is ≤ 0.026.
To C5G G7A U17G C72G belongs ≤ 0.026; to G61A C68U G69A G73A, ≤ 0.026; to C3A G18C C83A, ≤ 0.026.
To G6C U63C G84C belongs ≤ 0.026.
To G25C U57C A74U belongs ≤ 0.026; to C34A U55C, ≤ 0.026; to U8A A30C, ≤ 0.026.
For the variant C11G U35G, the nonsense suppression was ≤ 0.026.
In the case of U57A A60U A87G, the nonsense suppression is ≤ 0.026.
Regarding C11U G59C G85C, the nonsense suppression is ≤ 0.026.
As to U22C G25U U57G G85C, the nonsense suppression is ≤ 0.026.
In the case of A14U G25C C27U, the nonsense suppression was ≤ 0.026.
For the variant G6U U57C, the nonsense suppression was ≤ 0.026.
In the case of A9G A14C A54G G69U it was ≤ 0.026; in that of G59U C68U, ≤ 0.026; in that of A60G A62U U63C C64G G67C, ≤ 0.026.
With C34G C81G, the nonsense suppression was ≤ 0.026.
In the case of C3G C12G G18C A31G G78A it was ≤ 0.026.
On to G15A G25U U55C, for which the nonsense suppression was ≤ 0.026.
Turning to C5A A23C C27G G61U, the nonsense suppression was ≤ 0.026.
To G19U C27U U55C belongs ≤ 0.026; to C1U A9C U17C C29U C80G A89U, ≤ 0.026; to A24C A31U A89U, ≤ 0.026.
For the variant C1U U4A C12G G32C G67U G88U, the nonsense suppression was ≤ 0.026.
In the case of G6C C79G it was ≤ 0.026.
Turning to G15C A24C, the nonsense suppression is ≤ 0.026.
To A9C U17C C27U G69A belongs ≤ 0.026; to U20C A31U, 0.0722.
In the case of C5A C11G G18A it was ≤ 0.026; in that of G84A G88A, ≤ 0.026; in that of U2C G26C, ≤ 0.026.
In the case of A9G C81A it was ≤ 0.026; in that of U22G G25U U55C, ≤ 0.026; in that of U55C A60C, ≤ 0.026.
For the variant C11A U71G, the nonsense suppression was ≤ 0.026.
In the case of U8C C34G U76C G84U it was ≤ 0.026; in that of G7U A62U C80A C81U, ≤ 0.026.
In the case of C11G A33G C64A U76G it was ≤ 0.026; in that of G25A G32U A74G, ≤ 0.026.
In the case of G66A G67A G86C it was ≤ 0.026.
In the case of G18C U22C C34U U35G, the nonsense suppression was ≤ 0.026.
In the case of A13G A24U, the nonsense suppression came out at 0.0411.
In the case of A24U U35G U70A it was ≤ 0.026; in that of A13C G66C A74G, ≤ 0.026; in that of C3U A33G C80A, ≤ 0.026.
In the case of C1U C3U G10U G59U it was ≤ 0.026; in that of U8G U71G, ≤ 0.026; in that of C3A C12U U17G A87G, ≤ 0.026.
Consider U2A C12U U22G, for which the nonsense suppression was ≤ 0.026.
On to A9C A60C, for which the nonsense suppression is 0.0924.
As to C29U G32C U55A, the nonsense suppression was ≤ 0.026.
In the case of C3A A62C G85C it was ≤ 0.026; in that of C27G G65U G73C, ≤ 0.026; in that of U2C A62G G67U A89C, ≤ 0.026.
In the case of C3G C27A it was ≤ 0.026; in that of U35G U63G, ≤ 0.026.
In the case of U20G U71G C81U it was ≤ 0.026; in that of C12U C34A U70G C83G, ≤ 0.026.
Turning to C11A G67C, the nonsense suppression was ≤ 0.026.
Consider C3A A30G, for which the nonsense suppression is ≤ 0.026.
To G19U U63G G67C belongs ≤ 0.026.
To A13C G15C C29A U57A belongs ≤ 0.026; to G15U C27A, ≤ 0.026.
On to C12U U16C G19C, for which the nonsense suppression was ≤ 0.026.
Regarding U57G C80U G85C, the nonsense suppression was ≤ 0.026.
To A9C A60C C68A G69C belongs ≤ 0.026; to A60C G73C, 0.0519; to G10U A24G A31C A87C, ≤ 0.026.
As to U2C C34G C75G, the nonsense suppression is ≤ 0.026.
In the case of G28U C83A it was ≤ 0.026; in that of U17C G59C G66U C68A, ≤ 0.026.
For U55A U57G G61C, the nonsense suppression was ≤ 0.026.
To G10U G85C belongs ≤ 0.026; to A31G A74U, 0.029.
In the case of C3G G26U, the nonsense suppression was ≤ 0.026.
In the case of A33G U57G U63C it was ≤ 0.026; in that of U71A G73U C79G, ≤ 0.026; in that of G59U U63C G67C, ≤ 0.026.
To G7A U17A G18C belongs ≤ 0.026; to C5U G32A, ≤ 0.026; to A24G G59A G61U U63C G66A, ≤ 0.026.
As for C3G A62C, the nonsense suppression is ≤ 0.026.
Turning to C3G U55C, the nonsense suppression was 0.152.
To C1U C29A U70A belongs ≤ 0.026.
To G10C C12G U16C U21C belongs ≤ 0.026; to U4A C34U, ≤ 0.026; to A14G C29G G73A, ≤ 0.026.
Take A30G G65C C72U: the nonsense suppression was ≤ 0.026.
In the case of U70C U71A A87G it was ≤ 0.026.
Consider A31U A62U G65C C82A, for which the nonsense suppression was ≤ 0.026.
In the case of G32A G61C U70C it was ≤ 0.026.
In the case of U16G G26U U35G it was ≤ 0.026; in that of G18A U63C U71A, ≤ 0.026.
To G73A G88A belongs 0.0281; to G7U U58A G61A, ≤ 0.026; to C12U A23G G73A U76G C81U C83A G88U, ≤ 0.026.
Regarding G86A, the nonsense suppression was ≤ 0.026.
With G18A A24G A30U G66U, the nonsense suppression was ≤ 0.026.
Consider C5A A30G C68G U70A C77A A87G, for which the nonsense suppression was ≤ 0.026.
Turning to C27U A74C A87C, the nonsense suppression is ≤ 0.026.
With A62U C75G, the nonsense suppression worked out at 0.201.
For U4C G15U U17G U57A, the nonsense suppression was ≤ 0.026.
In the case of C81G C82G it was ≤ 0.026; in that of G28A C56G A89C, ≤ 0.026.
To A60U C72G belongs ≤ 0.026; to U4A C11U, 0.0306.
Take C1U A23C G59C U71C G86A: the nonsense suppression was ≤ 0.026.
To A30C C64U G88C belongs ≤ 0.026; to A9C A30G G69C, ≤ 0.026.
For the variant C68A U70A, the nonsense suppression is ≤ 0.026.
In the case of G19U G25U G61U it was ≤ 0.026; in that of C12U G65U A74C, ≤ 0.026; in that of U4C U17G G25C G66U U70C G84U, ≤ 0.026.
As to G7U C81A, the nonsense suppression is ≤ 0.026.
To U8C A24U U71C belongs ≤ 0.026.
Take A74U G78A: the nonsense suppression is 0.0557.
Turning to G15C A23G G73A C77G, the nonsense suppression was ≤ 0.026.
In the case of A9G U17C A30U U57C it was ≤ 0.026; in that of G67C G84U, ≤ 0.026.
To C1U U55A G67U belongs ≤ 0.026; to C1A U76C, ≤ 0.026.
As for A9G C27G G73C, the nonsense suppression was ≤ 0.026.
To G7A G19U A23U belongs ≤ 0.026; to C5G A14U U20C C27G, ≤ 0.026; to U21A A33C A62G A89C, ≤ 0.026.
In the case of A9C A62C G69C G84C it was ≤ 0.026.
